Laboratory results from article PMC10668032.
The list shows a part of the results. At the low end of the ranking the order means little.

Target: SIX1 homeodomain (reference allele) (UniProt Q15475)
Experiment: universal protein binding microarray
Details: Universal all-10-mer PBM (8x60K, AMADID 030236), 300 nM GST-tagged protein, Alexa Fluor 488 anti-GST; buffer, salt, pH and temperature not stated; high values mean tight binding; most listed sequences are background and not binding sites; double strand, one strand shown

Row | Sequence | binding signal [E-score]
1 | ACAAAGGG | -0.157
2 | ACACCGGA | 0.364
3 | AGCGCGAT | 0.166
4 | GACCAGGA | 0.107
5 | TACTTGGA | 0.091
6 | ACCGACCT | -0.00057
7 | AGGTGATC | 0.359
8 | CGAGTGCA | -0.11
9 | CAACATGC | -0.177
10 | AAGATGCC | 0.0158
11 | AAAAGACC | -0.327
12 | ACTTGCAT | -0.182
13 | CTGCTCAA | -0.176
14 | CATATAAA | 0.0492
15 | GCGATCGC | 0.378
16 | AGAGTGGG | -0.0427
17 | AGTTCACC | -0.0047
18 | TCTGTCAA | -0.111
19 | GGACGGCA | -0.145
20 | GCATCCAA | -0.0517
21 | GGACCGAA | -0.291
22 | CTTTCTTA | -0.157
23 | ACTAAACT | -0.23
24 | GACCACTC | -0.0612

Row | Sequence | binding signal [E-score]
25 | GTCTGTTA | -0.0158
26 | GGGTTGTA | 0.162
27 | GTCGCGTA | -0.056
28 | AAAATTCG | -0.139
29 | CACCCTCG | 0.0954
30 | AACTCAGT | -0.191
31 | AATCTAAG | -0.0701
32 | CAAATGAA | -0.146
33 | CGACGTTC | -0.238
34 | GTTGAAGA | -0.0562
35 | ACCTCTCG | -0.0261
36 | TGTAAGAA | 0.029
37 | CCGGGCGC | -0.134
38 | AATGCCAC | -0.137
39 | AGGTCCAA | -0.0829
40 | TACAATGA | 0.139
41 | AGACATAT | 0.243
42 | TCGTGTAA | 0.083
43 | TAATCCGA | 0.297
44 | CAGCTACA | -0.0346
45 | CTCAGATC | 0.27
46 | GGTTGCAC | -0.0339
47 | ACCGAACA | 0.047
48 | CAGTAGTC | -0.109

Row | Sequence | binding signal [E-score]
49 | AATAAAGC | -0.177
50 | GCTGTTAA | -0.196
51 | CAGTGACG | -0.122
52 | ACTGACTG | -0.161
53 | CTATATCA | 0.412
54 | ATCAACAT | 0.225
55 | AACATGCC | -0.223
56 | ACAGGCCC | -0.201
57 | ACCTACCA | -0.121
58 | CGGGTTTC | 0.132
59 | GAAACTGA | -0.254
60 | GCCTCAAC | -0.0586
61 | AGGAACAT | -0.155
62 | CTAGTTTA | -0.246
63 | GTTGATGA | -0.0362
64 | AAATGTGT | -0.127
65 | ACTCCACG | -0.151
66 | ACGCCACG | -0.0993
67 | GCGCCGCC | -0.0101
68 | GTCGATAA | -0.19
69 | GGTGCACA | -0.106
70 | CAGCAGAC | -0.26
71 | CGGCGAAC | 0.129
72 | CAGAACGC | -0.231

Row | Sequence | binding signal [E-score]
73 | AAGTACCG | -0.151
74 | GCCTGTAC | -0.257
75 | CGCAACTC | -0.201
76 | ACGGACAA | -0.0291
77 | AGCGCCCG | -0.16
78 | TCCCGAGA | 0.0986
79 | ATAGCATG | 0.0394
80 | AAGTAAAT | -0.0628
81 | ATGATGGC | -0.126
82 | ACTACGTG | -0.0731
83 | CAAGCTAG | -0.0839
84 | CGACCGAG | -0.117
85 | GACTCGGA | 0.0606
86 | CGGCATGA | 0.139
87 | AGTCGACG | 0.0544
88 | GCTCCGCC | -0.109
89 | ACGTTCTG | -0.178
90 | ACGGGCTA | 0.0249
91 | CCGTTGTC | -0.159
92 | ACTCGGGA | 0.0672
93 | AAGCGGTC | -0.148
94 | AGACCCTG | 0.0178
